# Reference: the supplement of paper PMC8728848
# The list shows a part of the results.
# B1: HBHA-Rv (Mycobacterium tuberculosum), P0A5P6 (protein)
# chain: MAENSNIDDIKAPLLAALGAADLALATVNELITNLRERAEETRTDTRSRVEESRARLTKLQEDLPEQLTELREKFTAEELRKAAEGYLEAATSRYNELVERGEAALERLRSQQSFEEVSARAEGYVDQAVELTQEALGTVASQTRAVGERAAKLVGIELPKKAAPAKKAAPAKKAAPAKKAAAKKAPAKKAAAKKVTQK
# Tests used:
# Assay in all cases: glycan array binding signal (z-score within array); higher = stronger binding
# Conditions in all cases: glycan notation: IUPAC condensed, linker removed
# [1] = target: Neu5Ac(a2-3)Gal(b1-4)GlcNAc(b1-2)[Neu5Ac(a2-3)Gal(b1-4)GlcNAc(b1-4)]Man(a1-3)[GlcNAc(b1-4)][Neu5Ac(a2-3)Gal(b1-4)GlcNAc(b1-2)[Neu5Ac(a2-3)Gal(b1-4)GlcNAc(b1-6)]Man(a1-6)]Man(b1-4)GlcNAc(b1-4)GlcNAc
# Summary of the method: (§1)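 The binding signal is a Z-score computed within each array and averaged over linkers. Arrays of the same protein sequence at different concentrations or buffers were also averaged together. Data originate from 3228 arrays in the Consortium for Functional Glycomics database, kept only where the protein sequence was available.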
# [2] = target: Neu5Ac(a2-3)Gal(b1-4)GlcNAc(b1-2)[Neu5Ac(a2-3)Gal(b1-4)GlcNAc(b1-4)]Man(a1-3)[GlcNAc(b1-4)][Neu5Ac(a2-3)Gal(b1-4)GlcNAc(b1-4)Man(a1-6)]Man(b1-4)GlcNAc(b1-4)GlcNAc
# Summary of the method: as §1
# [3] = target: Neu5Ac(a2-3)Gal(b1-4)GlcNAc(b1-2)[Neu5Ac(a2-3)Gal(b1-4)GlcNAc(b1-6)]Man(a1-6)[Neu5Ac(a2-3)Gal(b1-4)GlcNAc(b1-2)Man(a1-3)]Man(b1-4)GlcNAc(b1-4)GlcNAc
# Summary of the method: as §1
# [4] = target: Neu5Ac(a2-3)Gal(b1-4)GlcNAc(b1-2)[Neu5Ac(a2-3)Gal(b1-4)GlcNAc(b1-6)]Man(a1-6)[Neu5Ac(a2-3)Gal(b1-4)GlcNAc(b1-2)Man(a1-3)][GlcNAc(b1-4)]Man(b1-4)GlcNAc(b1-4)GlcNAc
# Summary of the method: as §1
# [5] = target: Neu5Ac(a2-3)Gal(b1-4)GlcNAc(b1-3)Gal
# Summary of the method: as §1
# [6] = target: Neu5Ac(a2-3)Gal(b1-4)GlcNAc(b1-3)Gal(b1-3)GlcNAc
# Summary of the method: as §1
# [7] = target: Neu5Ac(a2-3)Gal(b1-4)GlcNAc(b1-3)Gal(b1-4)GlcNAc
# Summary of the method: as §1
# [8] = target: Neu5Ac(a2-3)Gal(b1-4)GlcNAc(b1-3)Gal(b1-4)GlcNAc(b1-2)Man(a1-3)[Neu5Ac(a2-3)Gal(b1-4)GlcNAc(b1-3)Gal(b1-4)GlcNAc(b1-2)Man(a1-6)]Man(b1-4)GlcNAc(b1-4)GlcNAc
# Summary of the method: as §1
# [9] = target: Neu5Ac(a2-3)Gal(b1-4)GlcNAc(b1-3)Gal(b1-4)GlcNAc(b1-3)Gal(b1-4)GlcNAc
# Summary of the method: as §1
# [10] = target: Neu5Ac(a2-3)Gal(b1-4)GlcNAc(b1-3)Gal(b1-4)GlcNAc(b1-3)Gal(b1-4)GlcNAc(b1-2)Man(a1-3)[Neu5Ac(a2-3)Gal(b1-4)GlcNAc(b1-3)Gal(b1-4)GlcNAc(b1-3)Gal(b1-4)GlcNAc(b1-2)Man(a1-6)]GalNAc
# Summary of the method: as §1
# [11] = target: Neu5Ac(a2-3)Gal(b1-4)GlcNAc(b1-3)Gal(b1-4)GlcNAc(b1-3)GalNAc
# Summary of the method: as §1
# [12] = target: Neu5Ac(a2-3)Gal(b1-4)GlcNAc(b1-3)Gal(b1-4)GlcNAc(b1-3)[Neu5Ac(a2-3)Gal(b1-4)GlcNAc(b1-3)Gal(b1-4)GlcNAc(b1-6)]GalNAc
# Summary of the method: as §1
# [13] = target: Neu5Ac(a2-3)Gal(b1-4)GlcNAc(b1-3)Gal(b1-4)GlcNAc(b1-6)[Gal(b1-3)]GalNAc
# Summary of the method: as §1
# [14] = target: Neu5Ac(a2-3)Gal(b1-4)GlcNAc(b1-3)Gal(b1-4)[Fuc(a1-3)]GlcNAc
# Summary of the method: as §1
# [15] = target: Neu5Ac(a2-3)Gal(b1-4)GlcNAc(b1-3)GalNAc
# Summary of the method: as §1
# [16] = target: Neu5Ac(a2-3)Gal(b1-4)GlcNAc(b1-3)[Neu5Ac(a2-3)Gal(b1-4)GlcNAc(b1-6)]GalNAc
# Summary of the method: as §1
# [17] = target: Neu5Ac(a2-3)Gal(b1-4)GlcNAc(b1-6)GalNAc
# Summary of the method: as §1
# [18] = target: Neu5Ac(a2-3)Gal(b1-4)GlcNAc(b1-6)[Gal(b1-3)]GalNAc
# Summary of the method: as §1
# [19] = target: Neu5Ac(a2-3)Gal(b1-4)GlcNAc(b1-6)[Neu5Ac(a2-3)Gal(b1-3)]GalNAc
# Summary of the method: as §1
# [20] = target: Neu5Ac(a2-3)Gal(b1-4)GlcNAc6S
# Summary of the method: as §1
# [21] = target: Neu5Ac(a2-3)Gal(b1-4)[Fuc(a1-3)]GlcNAc
# Summary of the method: as §1
# [22] = target: Neu5Ac(a2-3)Gal(b1-4)[Fuc(a1-3)]GlcNAc(b1-2)Man
# Summary of the method: as §1
# [23] = target: Neu5Ac(a2-3)Gal(b1-4)[Fuc(a1-3)]GlcNAc(b1-3)Gal
# Summary of the method: as §1
# [24] = target: Neu5Ac(a2-3)Gal(b1-4)[Fuc(a1-3)]GlcNAc(b1-3)Gal(b1-4)GlcNAc
# Summary of the method: as §1
# [25] = target: Neu5Ac(a2-3)Gal(b1-4)[Fuc(a1-3)]GlcNAc(b1-3)Gal(b1-4)[Fuc(a1-3)]GlcNAc(b1-3)Gal(b1-4)[Fuc(a1-3)]GlcNAc
# Summary of the method: as §1
# [26] = target: Neu5Ac(a2-3)Gal(b1-4)[Fuc(a1-3)]GlcNAc(b1-3)GalNAc
# Summary of the method: as §1
# [27] = target: Neu5Ac(a2-3)Gal(b1-4)[Fuc(a1-3)]GlcNAc(b1-6)[Gal(b1-3)]GalNAc
# Summary of the method: as §1
# [28] = target: Neu5Ac(a2-3)Gal(b1-4)[Fuc(a1-3)]GlcNAc(b1-6)[Neu5Ac(a2-3)Gal(b1-3)]GalNAc
# Summary of the method: as §1
# [29] = target: Neu5Ac(a2-3)Gal(b1-4)[Fuc(a1-3)]GlcNAc6S
# Summary of the method: as §1
# [30] = target: Neu5Ac(a2-3)Gal6S(b1-4)GlcNAc
# Summary of the method: as §1
# [31] = target: Neu5Ac(a2-3)Gal6S(b1-4)[Fuc(a1-3)]GlcNAc
# Summary of the method: as §1
# Neu5Ac(a2-3)GalNAc = target: Neu5Ac(a2-3)GalNAc
# Summary of the method: as §1
# [32] = target: Neu5Ac(a2-3)GalNAc(b1-4)GlcNAc
# Summary of the method: as §1
# [33] = target: Neu5Ac(a2-3)[GalNAc(b1-4)]Gal(b1-4)Glc
# Summary of the method: as §1
# [34] = target: Neu5Ac(a2-3)[GalNAc(b1-4)]Gal(b1-4)GlcNAc
# Summary of the method: as §1
# [35] = target: Neu5Ac(a2-3)[GalNAc(b1-4)]Gal(b1-4)GlcNAc(b1-3)GalNAc
# Summary of the method: as §1
# [36] = target: Neu5Ac(a2-3)[Neu5Ac(a2-6)]GalNAc
# Summary of the method: as §1
# Neu5Ac(a2-6)Gal = target: Neu5Ac(a2-6)Gal
# Summary of the method: as §1
# [37] = target: Neu5Ac(a2-6)Gal(b1-3)GlcNAc(b1-3)[Gal(b1-4)GlcNAc(b1-6)]Gal(b1-4)Glc
# Summary of the method: as §1
# Neu5Ac(a2-6)Gal(b1-4)Glc = target: Neu5Ac(a2-6)Gal(b1-4)Glc
# Summary of the method: as §1
# [38] = target: Neu5Ac(a2-6)Gal(b1-4)GlcNAc
# Summary of the method: as §1
# [39] = target: Neu5Ac(a2-6)Gal(b1-4)GlcNAc(b1-2)Man
# Summary of the method: as §1
# [40] = target: Neu5Ac(a2-6)Gal(b1-4)GlcNAc(b1-2)Man(a1-3)Man(b1-4)GlcNAc(b1-4)GlcNAc
# Summary of the method: as §1
# [41] = target: Neu5Ac(a2-6)Gal(b1-4)GlcNAc(b1-2)Man(a1-3)[Gal(b1-4)GlcNAc(b1-2)Man(a1-6)]Man(b1-4)GlcNAc(b1-4)GlcNAc
# Summary of the method: as §1
# [42] = target: Neu5Ac(a2-6)Gal(b1-4)GlcNAc(b1-2)Man(a1-3)[GlcNAc(b1-2)Man(a1-6)]Man(b1-4)GlcNAc(b1-4)GlcNAc
# Summary of the method: as §1
binder,measurement,setting,value
B1,glycan array binding signal (z-score),[1],-0.325
same,glycan array binding signal (z-score),[2],-0.397
same,glycan array binding signal (z-score),[3],-0.3
same,glycan array binding signal (z-score),[4],-0.376
same,glycan array binding signal (z-score),[5],-0.382
same,glycan array binding signal (z-score),[6],-0.391
same,glycan array binding signal (z-score),[7],-0.31
same,glycan array binding signal (z-score),[8],-0.297
same,glycan array binding signal (z-score),[9],-0.345
same,glycan array binding signal (z-score),[10],-0.268
same,glycan array binding signal (z-score),[11],-0.422
same,glycan array binding signal (z-score),[12],-0.477
same,glycan array binding signal (z-score),[13],-0.483
same,glycan array binding signal (z-score),[14],-0.473
same,glycan array binding signal (z-score),[15],-0.379
same,glycan array binding signal (z-score),[16],-0.398
same,glycan array binding signal (z-score),[17],0.196
same,glycan array binding signal (z-score),[18],-0.331
same,glycan array binding signal (z-score),[19],-0.421
same,glycan array binding signal (z-score),[20],-0.128
same,glycan array binding signal (z-score),[21],-0.199
same,glycan array binding signal (z-score),[22],-0.234
same,glycan array binding signal (z-score),[23],-0.179
same,glycan array binding signal (z-score),[24],-0.07
same,glycan array binding signal (z-score),[25],-0.212
same,glycan array binding signal (z-score),[26],0.06
same,glycan array binding signal (z-score),[27],-0.144
same,glycan array binding signal (z-score),[28],-0.398
same,glycan array binding signal (z-score),[29],-0.363
same,glycan array binding signal (z-score),[30],0.355
same,glycan array binding signal (z-score),[31],0.273
same,glycan array binding signal (z-score),Neu5Ac(a2-3)GalNAc,0.335
same,glycan array binding signal (z-score),[32],-0.046
same,glycan array binding signal (z-score),[33],0.149
same,glycan array binding signal (z-score),[34],-0.242
same,glycan array binding signal (z-score),[35],-0.415
same,glycan array binding signal (z-score),[36],-0.374
same,glycan array binding signal (z-score),Neu5Ac(a2-6)Gal,-0.159
same,glycan array binding signal (z-score),[37],-0.459
same,glycan array binding signal (z-score),Neu5Ac(a2-6)Gal(b1-4)Glc,-0.211
same,glycan array binding signal (z-score),[38],0.008
same,glycan array binding signal (z-score),[39],-0.298
same,glycan array binding signal (z-score),[40],-0.457
same,glycan array binding signal (z-score),[41],-0.354
same,glycan array binding signal (z-score),[42],0.173
